In the supplement of paper PMC3334620:
Over roughly 33,000 sequences, “E-score (-0.5 to 0.5)” has its median near -0.012; the highest 2% begin near 0.27. The list shows a part of the results.

target: T1, Vhr1 (UniProt P40522); experiment: PBM E-score (8-mer binding enrichment) (E-score (-0.5 to 0.5)); higher = stronger / more preferred TF binding; most listed sequences are background and not binding sites; conditions: protein concentration: 200 nM; construct: GST-full length
T1 sequence: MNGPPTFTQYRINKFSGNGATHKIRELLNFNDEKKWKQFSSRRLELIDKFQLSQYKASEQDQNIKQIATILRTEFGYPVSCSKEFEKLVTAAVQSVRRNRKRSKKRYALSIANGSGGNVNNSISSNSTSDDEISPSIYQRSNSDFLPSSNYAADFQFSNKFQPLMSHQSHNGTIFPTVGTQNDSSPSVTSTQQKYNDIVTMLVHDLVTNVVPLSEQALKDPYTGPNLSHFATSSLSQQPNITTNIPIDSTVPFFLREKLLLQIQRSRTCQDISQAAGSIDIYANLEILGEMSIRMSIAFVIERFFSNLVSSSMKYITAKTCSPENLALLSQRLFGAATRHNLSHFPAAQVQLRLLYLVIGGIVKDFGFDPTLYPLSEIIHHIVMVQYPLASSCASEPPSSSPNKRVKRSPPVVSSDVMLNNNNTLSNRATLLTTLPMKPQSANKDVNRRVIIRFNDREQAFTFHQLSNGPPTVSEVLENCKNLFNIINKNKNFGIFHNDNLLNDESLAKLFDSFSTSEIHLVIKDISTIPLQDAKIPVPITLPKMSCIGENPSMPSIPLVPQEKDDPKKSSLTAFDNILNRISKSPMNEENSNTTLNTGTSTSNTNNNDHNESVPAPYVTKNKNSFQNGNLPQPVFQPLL
Description: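 Universal 'all 10-mer' protein binding microarrays (Agilent AMADID 015681) probed with GST-tagged S. cerevisiae TFs (full-length or DBD) made by in vitro transcription/translation (PURExpress), about 100-200 nM. Bound TF was detected with fluorescent anti-GST. Each ungapped 8-mer (which stands for itself and its reverse complement) is scored by the PBM enrichment score (E-score), a modified Wilcoxon-Mann-Whitney statistic from -0.5 to +0.5, computed with the Universal PBM Analysis Suite. Scale: above 0.35 generally sequence-specific binding.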

Going from TGCTGTAA to CATGGCAA, the “PBM E-score” value rises from -0.117 to -0.031.

Going from AACCTGAA to GCCGAACA, the “PBM E-score” value rises from -0.0777 to 0.0562.

First: TTCAACAA
Second: CCAACTAG
The “PBM E-score” value of the first is higher: 0.0679 for the first, -0.00513 for the second.

Going from ACACAGGG to GGGCTTGA, the “PBM E-score” value falls from 0.127 to -0.125.

First: CCAATTGC
Second: CCCGAATA
The “PBM E-score” value of the first is lower: -0.196 for the first, 0.0112 for the second.

First: AAGTAGAC
Second: AAATTATT
The “PBM E-score” value of the first is lower: -0.0556 for the first, -0.0495 for the second.

Compared with AAAGTTCA, ACTTTACG is higher in “PBM E-score” value: -0.0836 for the first, -0.0234 for the second.

Going from TGCCAAAA to CGTGGGAA, the “PBM E-score” value falls from -0.139 to -0.189.

Compared with GTATTAAC, GATAGAGC is lower in “PBM E-score” value: 0.142 for the first, -0.29 for the second.

Compared with GGGGATCA, CTGTCTTC is higher in “PBM E-score” value: -0.283 for the first, -0.105 for the second.

Going from CAAAGCAC to ACTTCGGG, the “PBM E-score” value falls from -0.025 to -0.124.

First: AAAGTCCC
Second: ACCTTGCT
The “PBM E-score” value of the first is lower: -0.301 for the first, -0.137 for the second.

Compared with ATATGGAT, TAGCGGAA is lower in “PBM E-score” value: 0.244 for the first, -0.193 for the second.

Compared with ATCCACTG, ACAGCTAG is higher in “PBM E-score” value: 0.0196 for the first, 0.0559 for the second.

Compared with CGGCACGC, ATGTCGCA is higher in “PBM E-score” value: -0.0534 for the first, 0.0604 for the second.

First: CAGAGGGA
Second: CGGAACAC
The “PBM E-score” value of the first is lower: -0.188 for the first, 0.185 for the second.

Compared with AGTCGTTG, ATACGCGC is lower in “PBM E-score” value: 0.0341 for the first, 0.0339 for the second.

Compared with AAGAAGAA, GCGATATA is higher in “PBM E-score” value: -0.0589 for the first, 0.108 for the second.

Going from CAGGGGGG to AGCTATTG, the “PBM E-score” value rises from -0.162 to -0.109.

Going from CCTACCGC to AGGTGTTC, the “PBM E-score” value falls from 0.0831 to -0.0649.

First: ACTTATCA
Second: ATAAGGGG
The “PBM E-score” value of the first is higher: 0.0454 for the first, -0.0708 for the second.

First: TAGACACA
Second: AGTTGTCA
The “PBM E-score” value of the first is lower: -0.13 for the first, 0.0769 for the second.

Compared with TCTATCCA, ACTTCCTG is higher in “PBM E-score” value: -0.169 for the first, -0.0591 for the second.

Going from GAATCAAA to ATACTTAC, the “PBM E-score” value rises from -0.0259 to 0.143.

Going from CGATGCAG to TAATGCCA, the “PBM E-score” value falls from 0.118 to 0.113.

Compared with GCCTCAAC, CTCAACTA is higher in “PBM E-score” value: -0.121 for the first, 0.106 for the second.

Going from AGGGTCAG to AGACAGAC, the “PBM E-score” value rises from -0.161 to 0.16.

Going from ATATAGAA to GTAGACTA, the “PBM E-score” value falls from 0.11 to -0.175.

Going from GAACGAAC to AAAGTCCA, the “PBM E-score” value falls from -0.0159 to -0.187.

First: AGCCTGGA
Second: AATCCCTA
The “PBM E-score” value of the first is higher: 0.0881 for the first, -0.0892 for the second.

Compared with AGGGCTAG, ACTATCCT is higher in “PBM E-score” value: -0.236 for the first, 0.0957 for the second.

Compared with ACCCCGAC, CGGGCTAA is lower in “PBM E-score” value: 0.181 for the first, -0.119 for the second.

Going from AGTCGAGG to TAATAGAA, the “PBM E-score” value rises from -0.0728 to -0.0679.

Going from ACTTACCA to CCTTGGGA, the “PBM E-score” value falls from -0.103 to -0.175.

First: ATGACTGG
Second: CCGTCCCG
The “PBM E-score” value of the first is higher: 0.298 for the first, -0.0823 for the second.

Going from GAGCTATC to CCTTATGC, the “PBM E-score” value rises from -0.143 to 0.0362.

Going from GCGGCGGA to TGCATTAA, the “PBM E-score” value falls from 0.13 to 0.0107.

Compared with TCTTACCA, CAAGTAGA is lower in “PBM E-score” value: 0.028 for the first, -0.0412 for the second.

Going from AGGGACGA to CCGGCAAC, the “PBM E-score” value rises from -0.0429 to 0.00493.

Going from CTAGGAAA to CGTCACCC, the “PBM E-score” value rises from -0.262 to -0.047.

First: CATAGCGA
Second: GTCCCTGA
The “PBM E-score” value of the first is higher: -0.0578 for the first, -0.0842 for the second.

Going from AGGTGGGG to CACAGTTC, the “PBM E-score” value rises from 0.0416 to 0.0452.

Going from CACTTTCG to AAAATGGC, the “PBM E-score” value falls from -0.142 to -0.228.

Going from GAGATGGC to GTCCAGAA, the “PBM E-score” value falls from -0.0254 to -0.0907.

First: CAAGACCG
Second: ACTGCCTC
The “PBM E-score” value of the first is lower: -0.221 for the first, -0.108 for the second.

First: CATGAGAC
Second: CTCTGAAG
The “PBM E-score” value of the first is higher: 0.274 for the first, -0.13 for the second.

First: ATCATCCA
Second: TGGCCTAA
The “PBM E-score” value of the first is higher: 0.262 for the first, -0.234 for the second.

Going from AACCGTCT to TGCATCAA, the “PBM E-score” value rises from -0.076 to 0.153.

Compared with ATATAAAG, GGCGCATA is higher in “PBM E-score” value: -0.196 for the first, -0.0171 for the second.

First: CCCACTAG
Second: GTGAGCTA
The “PBM E-score” value of the first is lower: -0.232 for the first, 0.126 for the second.

Going from CACATCGC to AAAACGTC, the “PBM E-score” value falls from 0.259 to -0.273.

Going from AAAGCCAC to AGGCCCGC, the “PBM E-score” value rises from -0.0731 to 0.0192.

Going from GTCAAAAC to GATAGTAA, the “PBM E-score” value rises from 0.0706 to 0.0876.

Going from TATGTACA to AACCATTC, the “PBM E-score” value falls from 0.0596 to -0.0569.

Going from CAATGCCA to CGTTCTTA, the “PBM E-score” value falls from -0.00204 to -0.12.

First: ACATCGCC
Second: CGCCATAC
The “PBM E-score” value of the first is higher: 0.153 for the first, 0.0581 for the second.

Going from CCGAAGTA to AGTTTTAT, the “PBM E-score” value falls from 0.0154 to -0.14.

Compared with TAGAAGAA, AATCAACT is higher in “PBM E-score” value: -0.198 for the first, -0.00176 for the second.

Going from CAAATAAC to TGACTGCA, the “PBM E-score” value rises from 0.0847 to 0.266.

First: CTGGAGAC
Second: AAAGGACG
The “PBM E-score” value of the first is higher: 0.0265 for the first, -0.16 for the second.

Compared with AAAAATTG, TGGCATAA is higher in “PBM E-score” value: -0.136 for the first, 0.209 for the second.

Compared with CGACATAG, TCCTGCAA is lower in “PBM E-score” value: -0.0719 for the first, -0.21 for the second.

Going from CGTACGCA to GGGGCGAC, the “PBM E-score” value rises from -0.0167 to 0.144.

First: GGTTTCGA
Second: ATGGGGAG
The “PBM E-score” value of the first is lower: -0.06 for the first, -0.0565 for the second.

Compared with TATCTAAA, AGATTGTA is lower in “PBM E-score” value: 0.119 for the first, 0.0192 for the second.

Compared with AAAAAGCC, GATCGCGA is higher in “PBM E-score” value: -0.0917 for the first, 0.189 for the second.

First: CTGTACAA
Second: TACGGAGA
The “PBM E-score” value of the first is lower: -0.151 for the first, 0.00353 for the second.

First: TGACGAAA
Second: CCGGTAAG
The “PBM E-score” value of the first is lower: -0.0902 for the first, -0.0459 for the second.

First: GCGCTCTA
Second: TAACGCGA
The “PBM E-score” value of the first is higher: -0.0208 for the first, -0.0706 for the second.

First: AGTAATAG
Second: CGATGGCC
The “PBM E-score” value of the first is higher: 0.0982 for the first, -0.165 for the second.

Compared with CTCGACTA, AGGGGCCA is lower in “PBM E-score” value: 0.163 for the first, -0.0724 for the second.

Going from CGTAAGCC to GTAGGTGA, the “PBM E-score” value rises from -0.173 to 0.0963.

First: TCAGATGA
Second: ATCTGTAG
The “PBM E-score” value of the first is higher: 0.221 for the first, 0.0268 for the second.

Going from TACACGGA to GCCACAGC, the “PBM E-score” value falls from 0.0609 to 0.0405.

Going from AACTCAAA to AAGCGACG, the “PBM E-score” value falls from 0.108 to -0.172.

Going from CAGGGCAC to GCAGTACC, the “PBM E-score” value falls from 0.0483 to 0.0122.

Compared with GCACACAA, AAGTGTCA is lower in “PBM E-score” value: 0.0772 for the first, -0.0801 for the second.

Going from GCTCGTAA to GCCACTAA, the “PBM E-score” value falls from -0.0526 to -0.0709.

Compared with ACTCGGCA, ATGATACC is lower in “PBM E-score” value: 0.143 for the first, 0.124 for the second.

Compared with AACGCTGC, CAAATGTG is higher in “PBM E-score” value: -0.255 for the first, 0.166 for the second.

First: AGGGAGAT
Second: AAGTGAAC
The “PBM E-score” value of the first is higher: -0.115 for the first, -0.149 for the second.

First: ACAAAAGC
Second: GTGCTCCA
The “PBM E-score” value of the first is lower: -0.131 for the first, -0.0978 for the second.

Compared with CCGTACCC, CGCCGCCA is higher in “PBM E-score” value: 0.178 for the first, 0.221 for the second.

Going from AAAACCTA to GTTTAATA, the “PBM E-score” value rises from -0.14 to -0.0225.

Compared with ACTGACTA, AAGCCGAA is lower in “PBM E-score” value: 0.295 for the first, 0.0141 for the second.

Compared with ACCTCTAT, AATCCAAG is higher in “PBM E-score” value: -0.0423 for the first, 0.086 for the second.
